A compilation of properties of binary mixtures (doi:10.1016/j.molliq.2010.03.018)
The densities may have been worked out from excess volumes.

Assay: xn = mol fraction of the nth substance listed
Details: 101 kPa

COCCOCCO + CCCC[n+]1ccn(C)c1.F[P-](F)(F)(F)(F)F
mass density [kg/m3]
Details | x1 = 0.1008 | x1 = 0.2217 | x1 = 0.3398 | x1 = 0.4582 | x1 = 0.519 | x1 = 0.6876 | x1 = 0.8005 | x1 = 0.8758 | x1 = 0.9136
288.15 K | – | 1329.3 | 1300.4 | 1267.7 | 1249 | 1190 | – | – | 1082
298.15 K | 1347.3 | – | 1291.9 | 1259.1 | – | 1181.6 | 1133.2 | 1094.9 | 1073.2
308.15 K | 1339 | 1312.7 | 1283.7 | 1250.8 | 1232.1 | – | – | 1086.2 | 1064.5

CCOCC(C)O (stereo not drawn) + CCCC[n+]1ccn(C)c1.F[P-](F)(F)(F)(F)F
mass density [kg/m3]
Details | x1 = 0.0532 | x1 = 0.172 | x1 = 0.255 | x1 = 0.3298 | x1 = 0.5031 | x1 = 0.6555 | x1 = 0.8423 | x1 = 0.9 | x1 = 0.9474
288.15 K | 1362.3 | 1330 | 1305.3 | – | 1214 | – | – | – | –
298.15 K | 1353.8 | 1321.6 | 1296.8 | 1272.2 | 1205.2 | 1132.7 | – | 978.1 | 939.6
308.15 K | 1345.6 | 1313.5 | – | 1263.8 | 1196.6 | 1124 | 1011.3 | 968.8 | –

COCC(C)O (stereo not drawn) + CCCC[n+]1ccn(C)c1.F[P-](F)(F)(F)(F)F
mass density [kg/m3]
Details | x1 = 0.0426 | x1 = 0.126 | x1 = 0.2396 | x1 = 0.4116 | x1 = 0.5071 | x1 = 0.6847 | x1 = 0.8536 | x1 = 0.9447
288.15 K | 1367.2 | 1349.1 | 1321.9 | – | 1237.5 | 1158.5 | – | 981
298.15 K | 1358.7 | 1340.6 | 1313.5 | – | 1228.7 | 1149.6 | 1046.3 | 971.6
308.15 K | 1350.4 | – | 1305 | 1254.4 | 1220 | 1140.6 | – | 962.1
